Experimental data published in PMC9911399, “Two distinct binding modes provide the RNA-binding protein RbFox with extraordinary sequence specificity”.
Residue numbers refer to the chain shown, from its start. Some of the results follow.

T1: RBFOX1 RRM (Homo sapiens, UniProt Q9NWB1 109-208)
T1 sequence: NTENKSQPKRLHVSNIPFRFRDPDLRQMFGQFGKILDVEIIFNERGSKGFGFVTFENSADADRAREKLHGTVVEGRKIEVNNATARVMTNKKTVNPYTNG

B1: AGUCCUG (DNA:RNA)
RNA: GGGAGACCGGAAUUCAGAUUGUCCAGUCCUGUUAAAUCCCGUCGUAGCCACCA
DNA 1: CAATCTGAATTCCGGTCTCCC
DNA 2: TGGTGGCTACGACGGGATT
B2: UCGCCAG (DNA:RNA)
RNA: B1 RNA with A25U, G26C, U27G, U30A
DNA 1: CAATCTGAATTCCGGTCTCCC
DNA 2: TGGTGGCTACGACGGGATT
B3: UCGCGCU (DNA:RNA)
RNA: B1 RNA with A25U, G26C, U27G, C29G, U30C, G31U
DNA 1: CAATCTGAATTCCGGTCTCCC
DNA 2: TGGTGGCTACGACGGGATT
B4: AGCCACU (DNA:RNA)
RNA: B1 RNA with U27C, C29A, U30C, G31U
DNA 1: CAATCTGAATTCCGGTCTCCC
DNA 2: TGGTGGCTACGACGGGATT
B5: UUAUUUC (DNA:RNA)
RNA: B1 RNA with A25U, G26U, U27A, C28U, C29U, G31C
DNA 1: CAATCTGAATTCCGGTCTCCC
DNA 2: TGGTGGCTACGACGGGATT
B6: GAAUAGU (DNA:RNA)
RNA: GGGAGACCGGAAUUCAGAUUGUCCGAAUAGUUUAAAUCCCGUCGUAGCCACCA
DNA 1: CAATCTGAATTCCGGTCTCCC
DNA 2: TGGTGGCTACGACGGGATT
B7: AUGCAAU (DNA:RNA)
RNA: B1 RNA with G26U, U27G, C29A, U30A, G31U
DNA 1: CAATCTGAATTCCGGTCTCCC
DNA 2: TGGTGGCTACGACGGGATT
B8: GACUCAC (DNA:RNA)
RNA: B6 RNA with A27C, A29C, G30A, U31C
DNA 1: CAATCTGAATTCCGGTCTCCC
DNA 2: TGGTGGCTACGACGGGATT
B9: AAAGCCG (DNA:RNA)
RNA: B1 RNA with G26A, U27A, C28G, U30C
DNA 1: CAATCTGAATTCCGGTCTCCC
DNA 2: TGGTGGCTACGACGGGATT
B10: CCAUAAC (DNA:RNA)
RNA: B6 RNA with G25C, A26C, G30A, U31C
DNA 1: CAATCTGAATTCCGGTCTCCC
DNA 2: TGGTGGCTACGACGGGATT
B11: CUUUCCA (DNA:RNA)
RNA: B1 RNA with A25C, G26U, C28U, U30C, G31A
DNA 1: CAATCTGAATTCCGGTCTCCC
DNA 2: TGGTGGCTACGACGGGATT
B12: AAACUCA (DNA:RNA)
RNA: B1 RNA with G26A, U27A, C29U, U30C, G31A
DNA 1: CAATCTGAATTCCGGTCTCCC
DNA 2: TGGTGGCTACGACGGGATT
B13: AUGACGC (DNA:RNA)
RNA: B1 RNA with G26U, U27G, C28A, U30G, G31C
DNA 1: CAATCTGAATTCCGGTCTCCC
DNA 2: TGGTGGCTACGACGGGATT
B14: GUAUUUC (DNA:RNA)
RNA: B6 RNA with A26U, A29U, G30U, U31C
DNA 1: CAATCTGAATTCCGGTCTCCC
DNA 2: TGGTGGCTACGACGGGATT
B15: UACGCAC (DNA:RNA)
RNA: B1 RNA with A25U, G26A, U27C, C28G, U30A, G31C
DNA 1: CAATCTGAATTCCGGTCTCCC
DNA 2: TGGTGGCTACGACGGGATT
B16: CGGAUCG (DNA:RNA)
RNA: B1 RNA with A25C, U27G, C28A, C29U, U30C
DNA 1: CAATCTGAATTCCGGTCTCCC
DNA 2: TGGTGGCTACGACGGGATT
B17: CAUCUCC (DNA:RNA)
RNA: B1 RNA with A25C, G26A, C29U, U30C, G31C
DNA 1: CAATCTGAATTCCGGTCTCCC
DNA 2: TGGTGGCTACGACGGGATT
B18: AAACCUG (DNA:RNA)
RNA: B1 RNA with G26A, U27A
DNA 1: CAATCTGAATTCCGGTCTCCC
DNA 2: TGGTGGCTACGACGGGATT
B19: CCUGAGU (DNA:RNA)
RNA: B6 RNA with G25C, A26C, A27U, U28G
DNA 1: CAATCTGAATTCCGGTCTCCC
DNA 2: TGGTGGCTACGACGGGATT
B20: AGAGAGC (DNA:RNA)
RNA: B6 RNA with G25A, A26G, U28G, U31C
DNA 1: CAATCTGAATTCCGGTCTCCC
DNA 2: TGGTGGCTACGACGGGATT
B21: UGACAUG (DNA:RNA)
RNA: B1 RNA with A25U, U27A, C29A
DNA 1: CAATCTGAATTCCGGTCTCCC
DNA 2: TGGTGGCTACGACGGGATT
B22: GGCAUGG (DNA:RNA)
RNA: B1 RNA with A25G, U27C, C28A, C29U, U30G
DNA 1: CAATCTGAATTCCGGTCTCCC
DNA 2: TGGTGGCTACGACGGGATT
B23: AGCGUCC (DNA:RNA)
RNA: B1 RNA with U27C, C28G, C29U, U30C, G31C
DNA 1: CAATCTGAATTCCGGTCTCCC
DNA 2: TGGTGGCTACGACGGGATT
B24: AGUGACC (DNA:RNA)
RNA: B1 RNA with C28G, C29A, U30C, G31C
DNA 1: CAATCTGAATTCCGGTCTCCC
DNA 2: TGGTGGCTACGACGGGATT
B25: CUCCACC (DNA:RNA)
RNA: B1 RNA with A25C, G26U, U27C, C29A, U30C, G31C
DNA 1: CAATCTGAATTCCGGTCTCCC
DNA 2: TGGTGGCTACGACGGGATT
B26: UUGCCAA (DNA:RNA)
RNA: B1 RNA with A25U, G26U, U27G, U30A, G31A
DNA 1: CAATCTGAATTCCGGTCTCCC
DNA 2: TGGTGGCTACGACGGGATT
B27: AUAAAAA (DNA:RNA)
RNA: B6 RNA with G25A, A26U, U28A, G30A, U31A
DNA 1: CAATCTGAATTCCGGTCTCCC
DNA 2: TGGTGGCTACGACGGGATT
B28: UACCGGA (DNA:RNA)
RNA: B6 RNA with G25U, A27C, U28C, A29G, U31A
DNA 1: CAATCTGAATTCCGGTCTCCC
DNA 2: TGGTGGCTACGACGGGATT
B29: UGGGGCU (DNA:RNA)
RNA: B1 RNA with A25U, U27G, C28G, C29G, U30C, G31U
DNA 1: CAATCTGAATTCCGGTCTCCC
DNA 2: TGGTGGCTACGACGGGATT
B30: UUGUCGU (DNA:RNA)
RNA: B6 RNA with G25U, A26U, A27G, A29C
DNA 1: CAATCTGAATTCCGGTCTCCC
DNA 2: TGGTGGCTACGACGGGATT
B31: CCGUCGC (DNA:RNA)
RNA: B6 RNA with G25C, A26C, A27G, A29C, U31C
DNA 1: CAATCTGAATTCCGGTCTCCC
DNA 2: TGGTGGCTACGACGGGATT

These binders were tested against T1, RBFOX1 RRM (assay: EMSA; HiTS-Eq, 1 nM pool, 10 min; buffer printed only for the single-RNA assays: 10 mM Tris pH 7.5, 150 mM NaCl, 3.4 mM EDTA, 0.001% NP-40, 30 C). Conditions: tags: His6 N-terminal (pET28a); label: 5' 32P.
Procedure, shortened: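 A pool of RNA with 7 randomized nucleotides, 5′-radiolabelled and with DNA-annealed flanks, was equilibrated at 1 nM for 10 min in 50 µL with purified RbFox RRM, wild type or mutant, across increasing protein concentrations. Free RNA was separated by 8% native PAGE, excised, reverse-transcribed, barcoded by PCR and sequenced. Relative association constants were obtained from read-count changes of each RNA species versus the control reaction and normalised to the cognate motif.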
For B1, the binding signal was 0.0138 KA relative to UGCAUGU.
B2 was tested, and the binding signal was 0.0133 KA relative to UGCAUGU.
With B3 the binding signal was 0.0113 KA relative to UGCAUGU.
In the case of B4, the binding signal is reported as 0.00443 KA relative to UGCAUGU.
For B5, the binding signal was 0.00881 KA relative to UGCAUGU.
B6 was tested, and the binding signal was 0.0102 KA relative to UGCAUGU.
With B7 the binding signal was 0.00453 KA relative to UGCAUGU.
In the case of B8, the binding signal is reported as 0.00768 KA relative to UGCAUGU.
With B9 the binding signal was 0.00202 KA relative to UGCAUGU.
In the case of B10, the binding signal is reported as 0.00123 KA relative to UGCAUGU.
In the case of B11, the binding signal is reported as 0.00311 KA relative to UGCAUGU.
For B12, the binding signal was 0.000673 KA relative to UGCAUGU.
In the case of B13, the binding signal is reported as 0.00673 KA relative to UGCAUGU.
For B14, the binding signal was 0.00965 KA relative to UGCAUGU.
B15 was tested, and the binding signal was 0.00932 KA relative to UGCAUGU.
In the case of B16, the binding signal is reported as 0.0358 KA relative to UGCAUGU.
In the case of B17, the binding signal is reported as 0.00467 KA relative to UGCAUGU.
In the case of B18, the binding signal is reported as 0.00336 KA relative to UGCAUGU.
For B19, the binding signal was 0.01 KA relative to UGCAUGU.
In the case of B20, the binding signal is reported as 0.00925 KA relative to UGCAUGU.
With B21 the binding signal was 0.0186 KA relative to UGCAUGU.
For B22, the binding signal was 0.104 KA relative to UGCAUGU.
For B23, the binding signal was 0.00856 KA relative to UGCAUGU.
For B24, the binding signal was 0.00568 KA relative to UGCAUGU.
With B25 the binding signal was 0.00389 KA relative to UGCAUGU.
B26 was tested, and the binding signal was 0.0126 KA relative to UGCAUGU.
With B27 the binding signal was 0.00125 KA relative to UGCAUGU.
For B28, the binding signal was 0.00211 KA relative to UGCAUGU.
In the case of B29, the binding signal is reported as 0.0267 KA relative to UGCAUGU.
In the case of B30, the binding signal is reported as 0.0256 KA relative to UGCAUGU.
B31 was tested, and the binding signal was 0.0119 KA relative to UGCAUGU.
